Source: PMC7242911 (Cell, 2020)

Biological target: T1, Recombinant chicken calmodulin (chicken, UniProt P62149)
T1 construct: calmodulin, chicken; The NMR methods cite Nakashima et al., 1996 for the CaM; also called CaM; source: recombinant (Nakashima et al., 1996)
Experiment: NMR titration; 1H,15N-HSQC; CaM titrated into 0.5 mM 13C,15N-labeled recAQP4ct, 0 and 2 molar equivalents; 20 mM Bis-Tris pH 7, 100 mM KCl, 6 mM CaCl2, 30°C
Conditions: both partners purified

binding result: binds
B1: Recombinant carboxyl terminus of AQP4 (recAQP4ct; […]) (domain or fragment)
chain: not shown
modifications: uniformly 13C, 15N-labeled
notes: cloning artifact left at the amino-terminus after PreScission cleavage; aquaporin-4, human, cytosolic carboxy-terminal tail, […] of NP_001641.1; Cloned in pGEX-6P1; also called recAQPct; rAQP4ct; source: E. coli BL21(DE3), M9 minimal medium, purified (glutathione-Sepharose 4B, cleaved on-column with PreScission Protease); not shown: GST, N-terminal, cleaved
